Measured values as given in the supplement of paper PMC11369174, “Proteome-scale characterisation of motif-based interactome rewiring by disease mutations” (Molecular Systems Biology, 2024).
Some of the results follow. The data scatter; read single values as rough.

molecular target: USP7_MATH-TRAF__Q93009_53_206; experiment: mutation enrichment score (mutant vs wild-type peptide binding to bait); baits are purified protein domains named by gene / domain / UniProt id / residues; peptides come from disordered regions of human proteins; higher = mutation enhances binding relative to wild type; conditions: number of wild-type / mutant comparisons summed (bounds the score): 5; paper call: no_effect; wild-type window: …
Sequence (chain, as listed by the source): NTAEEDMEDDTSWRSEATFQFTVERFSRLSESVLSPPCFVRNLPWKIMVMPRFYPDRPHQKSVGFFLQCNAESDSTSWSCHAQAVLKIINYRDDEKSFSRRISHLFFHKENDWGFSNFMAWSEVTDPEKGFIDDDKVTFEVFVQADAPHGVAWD

Row | Binder | mutation enrichment score
1 | TKVTLNTVGHHHRPPPHQASISGIQAELLTFPNSSPGLRRQ [V132I V132I] | 1
2 | VEQTERSRKLAEQELIETSEPVQLLHSQNTSLINQKKKMDA [R1712P R1712P] | -2
3 | VEQTERSRKLAEQELIETSEQVQLLHSQNTSLINQKKKMDA [R1712Q R1712Q] | -2
4 | VEQTERSRKLAEQELIETSEWVQLLHSQNTSLINQKKKMDA [R1712W R1712W] | -2
5 | LECMTWNQMNLGATLKGVAAASSSSVKWTEGQSNHSTGYES [G253A G253A] | -1.8
6 | GLHTPASQATTLHVPSQDPASIQHLQPAHRLSASPTVSSSS [G574S G574S] | -2
7 | SHHHEASSWADSSRHSLVGQRQSSGPRTSRPRGSSVSQDSD [G2228R G2228R] | -3
8 | MEEVSAIHTSQEDRSSGSTTGLHCVTDERNALRRSSAAHTH [E911G E911G] | -2.9
9 | QHPRTKSSRLQGSSLSSESAWHKAVEFSSGAKSPSKSGAQT [R1348W R1348W] | 2
10 | AAVSHWQQQSYLDSGIHSGASTTAPSLSGKGNPEEEDVDTS [T40S T40S] | 2.9
11 | ATQADLMELDMAMEPDRKAAGSHWQQQSYLDSGIHSGATTT [V22G V22G] | 2
12 | LLPGLAGPSGEMVKSTTSLTLSSTSGSSDKVYAHQMVRTDS [S368L S368L] | 3
13 | MEPAAGSSMEPSADWLATAARRGRVEEVRALLEAGA [L16R L16R] | 1.9
14 | WVVATKECKAELREHEHVVERISWAPESSYSSISEATGSET [C281R C281R] | 3
15 | EKRSLAFEEGSQSTTISSLSKKSKEETGISLQDLLLEIYRS [E1991K E1991K] | 3
16 | HLYQHPSSAVLYHTEVAYDPKGILGTINSIVMAFLGVQAGK [E499K E499K] | -3
17 | IERSRKGSSGNASEVSVACLPERIHQMEENQHSTSEELQAT [T397P T397P] | -2.7
18 | SPVPSPYAPQSPAGYMPYSHLSSYTTHPQMQQASVSSPIVA [P192L P192L] | 1

Row | Binder | mutation enrichment score
19 | QSLTMTAEQKESELIELRETMEMLKAQNSAAQAAIQGALNG [I1634M I1634M] | -2
20 | AEQKESELIELRETIEMLKAHNSAAQAAIQGALNGPDHPPK [Q1640H Q1640H] | -2
21 | SELIELRETIEMLKAQNSAARAAIQGALNGPDHPPKDLRIR [Q1645R Q1645R] | -2
22 | MIGLTLFVGVVIANFNENKGPALLTVDQRRWEDLKSRLKIA [T1165P T1165P] | 0.93
23 | AKEKESLQKDTADSSAAAAAGHSAQVGDPEMKNLPDTKAIT [E3413G E3413G] | 2
24 | PMFKRLLANAECQEGQSVCFQIRVSGIPPPTLKWEKDGQPL [E32742Q E32742Q] | 3
25 | RVTATNTAGSTSCQAHLQVECLRYKKQEFKSKEEHERHVQK [R32814C R32814C] | 2
26 | SSELSTPEKPPHQRAGPFSSWWETTMGEASASIPTTVGSLP [R1062W R1062W] | 1.6
27 | TSPMMDVPSVSDHSQQVVDSSFSDLGSIESTTENYENPSSY [G1549S G1549S] | 3
28 | RLTGLLDREVQAGRQALAAAGGSWGPGPSSLTVPAIVVDEE [R1261G R1261G] | 4
29 | MASSTPSSSATSSNAGADPNCTNLRPTTYDTW [S12C S12C] | 1.2
30 | HLTVGQAAAGGSGNLLTERSAFTDSQLGNADMEMTLERAVS [T338A T338A] | -2.9
31 | QRIYFDLDPTGQFLVSGSTSRAVSVWDTDGPGNDGKPEPVL [G435R G435R] | -2
32 | PAKFDQIEQFNDHMRMHVSDR [G741R G741R] | -2
33 | GNTSSLNPLAVGFVQTPPVILSAHIQDERVLEQAEGKVEEP [S2158L S2158L] | -3
34 | TPGVGVGVLGTAIGPVGPVTSIGPIGPIVPFTPIGPIGPIG [P497S P497S] | 3
35 | MSSSNVEVFIPVSQGNTNGFMATASNDLKAFT [V12M V12M] | -1.3
36 | PGRPCTRLQPAGSVSSTPLSPPCSSVPSSPSFSPTEQKTHL [T62P T62P] | 2

same assay, conditions: number of wild-type / mutant comparisons summed (bounds the score): 10; paper call: diminished; wild-type window: …

Row | Binder | mutation enrichment score
37 | SSEEMRPIKTEPGLSSHYGHGSSVSQTFSVSAMSGHGPSIH [S377G S377G] | -4.2

same assay, conditions: number of wild-type / mutant comparisons summed (bounds the score): 10; paper call: enhanced; wild-type window: …

Row | Binder | mutation enrichment score
38 | KYPRPSSVPPSPSGSQASSPHSSDVEDEVEDERYDEEEEAE [Q655H Q655H] | 4.8
39 | SGSHLSNSFAEPSRSNGSMVQHSSSPYVVYPSDKPFLNSDL [R30Q R30Q] | 5.1

same assay, conditions: number of wild-type / mutant comparisons summed (bounds the score): 10; paper call: no_effect; wild-type window: …

Row | Binder | mutation enrichment score
40 | ITESRPTPAPTATPTAPSPLEATAGPSYPRPVIPPVSTPGQ [Q248E Q248E] | 2
41 | KPKLKAGGSVESLRSSLSGQNSMSGQTVSTTDSSTSNRESV [S519N S519N] | -5
42 | PSGMRSLAEPGCPTHGSAESLSTAASPTTSVSSLTERADTG [P297L P297L] | -3.2
43 | MQGVELQPRLSGSDLGGHSSVLERLEKIIREQGDLQEKSLE [L2487V L2487V] | -4
44 | FSEKLRASTVMYHPEGESSTMPFFSTNSSLNLPVLEVGRTE [T163M T163M] | 1
45 | VEAQQSHGSSACSQPHGSVTESQGSSSQSQGISSSSTSTMP [Q27E Q27E] | 3
46 | SSTESSPQGSPEPLVLHEETAPTTSSDSEEEQEDEEEIDVV [P245A P245A] | -2
47 | DEDEDGDDLLHHHHGSHCSSLGDPAEYNLRSRTVLCGTCGQ [S573L S573L] | -5
